Data on four molecules can be found in publication PMC7188947.

Amino acid sequences for entries named in this document (tags omitted). A change or cut given only in a name is not applied to a line headed by its entry.
UniProt P28867: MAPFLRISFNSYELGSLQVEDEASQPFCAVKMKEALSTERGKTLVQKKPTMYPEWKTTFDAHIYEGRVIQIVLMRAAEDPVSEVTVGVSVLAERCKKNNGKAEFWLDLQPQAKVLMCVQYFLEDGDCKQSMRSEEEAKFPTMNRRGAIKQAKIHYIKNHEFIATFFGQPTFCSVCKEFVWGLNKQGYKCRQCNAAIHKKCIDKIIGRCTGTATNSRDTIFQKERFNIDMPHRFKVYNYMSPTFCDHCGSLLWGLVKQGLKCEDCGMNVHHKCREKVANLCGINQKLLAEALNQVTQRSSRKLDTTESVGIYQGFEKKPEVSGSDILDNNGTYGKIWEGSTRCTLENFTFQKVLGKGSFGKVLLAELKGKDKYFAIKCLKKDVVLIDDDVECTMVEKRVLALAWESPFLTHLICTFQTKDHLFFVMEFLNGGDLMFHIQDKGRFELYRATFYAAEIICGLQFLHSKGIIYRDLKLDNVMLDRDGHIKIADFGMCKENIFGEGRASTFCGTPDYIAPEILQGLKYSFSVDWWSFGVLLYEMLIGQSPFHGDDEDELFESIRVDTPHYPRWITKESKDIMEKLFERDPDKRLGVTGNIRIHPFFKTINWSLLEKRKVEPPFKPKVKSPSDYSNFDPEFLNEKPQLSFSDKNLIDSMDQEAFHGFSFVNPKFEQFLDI
UniProt Q05655: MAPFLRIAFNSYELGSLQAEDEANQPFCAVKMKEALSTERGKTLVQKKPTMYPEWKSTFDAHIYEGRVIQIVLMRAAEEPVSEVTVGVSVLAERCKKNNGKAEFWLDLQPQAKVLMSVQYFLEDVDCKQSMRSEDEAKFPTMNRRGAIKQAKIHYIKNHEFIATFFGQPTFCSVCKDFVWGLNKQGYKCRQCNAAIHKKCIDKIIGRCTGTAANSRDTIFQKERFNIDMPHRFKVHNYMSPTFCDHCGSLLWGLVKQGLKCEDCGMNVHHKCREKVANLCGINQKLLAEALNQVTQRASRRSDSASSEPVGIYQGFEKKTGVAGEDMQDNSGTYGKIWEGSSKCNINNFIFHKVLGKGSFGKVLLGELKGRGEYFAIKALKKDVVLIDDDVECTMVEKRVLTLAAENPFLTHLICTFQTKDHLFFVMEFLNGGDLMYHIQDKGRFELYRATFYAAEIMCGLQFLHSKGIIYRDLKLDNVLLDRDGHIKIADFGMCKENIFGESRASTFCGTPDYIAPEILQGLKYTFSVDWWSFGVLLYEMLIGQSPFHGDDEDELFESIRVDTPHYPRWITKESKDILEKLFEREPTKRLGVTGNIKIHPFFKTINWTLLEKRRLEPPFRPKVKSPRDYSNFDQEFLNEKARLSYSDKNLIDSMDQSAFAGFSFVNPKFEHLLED

These are yes or no findings as the source states them, for the method shown. Binding seen in cells or lysates may run through a third protein. Some entries that bind do so weakly or less than the wild type.

Experiment [1] concerns the target endogenous PKCδ (mouse macrophages) (mouse (endogenous in Raw264.7 and BMDM)) (UniProt P28867). Nature of the experiment: co-IP; BMDM cells treated with poly(I:C) or PBS for 2 h; lysate immunoprecipitated with anti-PKCδ antibody; endogenous proteins; Western blot. In general terms: Immunoblotting shows a protein as a band on a membrane.
For experiment [2] the target is unchanged. Nature of the experiment: co-IP; Raw264.7 cells treated with poly(I:C) or PBS for 2 h; lysate immunoprecipitated with anti-PKCδ antibody; endogenous proteins; Western blot.
The target in experiment [3] is Flag-PKCδ (human protein kinase C delta fused with Flag tag) (human) (UniProt Q05655). Nature of the experiment: co-IP; HEK-293T cells transfected with Flag-PKCδ and Myc-A20 or A20 truncates; RIPA lysate, pre-cleared, antibody 5 h at 4°C, protein G agarose overnight; anti-Flag antibody for the precipitation (Figure 6C); Western blot.

B1: endogenous A20 (mouse macrophages) (enzyme, UniProt Q60769 1-775)
chain: MAEQLLPQALYLSNMRKAVKIRERTPEDIFKPTNGIIYHFKTMHRYTLEMFRTCQFCPQFREIIHKALIDRSVQASLESQKKLNWCREVRKLVALKTNGDGNCLMHAACQYMWGVQDTDLVLRKALCSTLKETDTRNFKFRWQLESLKSQEFVETGLCYDTRNWNDEWDNLVKMASADTPAARSGLQYNSLEEIHIFVLSNILRRPIIVISDKMLRSLESGSNFAPLKVGGIYLPLHWPAQECYRYPIVLGYDSQHFVPLVTLKDSGPELRAVPLVNRDRGRFEDLKVHFLTDPENEMKEKLLKEYLIVMEIPVQGWDHGTTHLINAAKLDEANLPKEINLVDDYFELVQHEYKKWQENSDQARRAAHAQNPLEPSTPQLSLMDIKCETPNCPFFMSVNTQPLCHECSERRQKNQSKLPKLNSKLGPEGLPGVGLGSSNWSPEETAGGPHSAPPTAPSLFLFSETTAMKCRSPGCPFTLNVQHNGFCERCHARQINASHTADPGKCQACLQDVTRTFNGICSTCFKRTTAEPSSSLTSSIPASCHQRSKSDPSQLIQSLTPHSCHRTGNVSPSGCLSQAARTPGDRAGTSKCRKAGCMYFGTPENKGFCTLCFIEYRENKQSVTASEKAGSPAPRFQNNVPCLGRECGTLGSTMFEGYCQKCFIEAQNQRFHEARRTEEQLRSSQHRDMPRTTQVASRLKCARASCKNILACRSEELCMECQHLSQRVGSVAHRGEPTPEEPPKQRCRAPACDHFGNAKCNGYCNECYQFKQMYG
As to B1, the binding entry in experiment [1] and in experiment [2] was “binds” in each case.

B2: A20-2 (384-790aa), truncated region of human A20 including the Zn fingers domain (domain or fragment, UniProt P21580 384-790)
chain: DVKCETPNCPFFMSVNTQPLCHECSERRQKNQNKLPKLNSKPGPEGLPGMALGASRGEAYEPLAWNPEESTGGPHSAPPTAPSPFLFSETTAMKCRSPGCPFTLNVQHNGFCERCHNARQLHASHAPDHTRHLDPGKCQACLQDVTRTFNGICSTCFKRTTAEASSSLSTSLPPSCHQRSKSDPSRLVRSPSPHSCHRAGNDAPAGCLSQAARTPGDRTGTSKCRKAGCVYFGTPENKGFCTLCFIEYRENKHFAAASGKVSPTASRFQNTIPCLGRECGTLGSTMFEGYCQKCFIEAQNQRFHEAKRTEEQLRSSQRRDVPRTTQSTSRPKCARASCKNILACRSEELCMECQHPNQRMGPGAHRGEPAPEDPPKQRCRAPACDHFGNAKCNGYCNECFQFKQMYG
On to B2, for which the binding entry in experiment [3] was “binds”.

B3: A20-1 (1-383aa), truncated region of human A20 including the OTU domain (domain or fragment, UniProt P21580 1-383)
chain: MAEQVLPQALYLSNMRKAVKIRERTPEDIFKPTNGIIHHFKTMHRYTLEMFRTCQFCPQFREIIHKALIDRNIQATLESQKKLNWCREVRKLVALKTNGDGNCLMHATSQYMWGVQDTDLVLRKALFSTLKETDTRNFKFRWQLESLKSQEFVETGLCYDTRNWNDEWDNLIKMASTDTPMARSGLQYNSLEEIHIFVLCNILRRPIIVISDKMLRSLESGSNFAPLKVGGIYLPLHWPAQECYRYPIVLGYDSHHFVPLVTLKDSGPEIRAVPLVNRDRGRFEDLKVHFLTDPENEMKEKLLKEYLMVIEIPVQGWDHGTTHLINAAKLDEANLPKEINLVDDYFELVQHEYKKWQENSEQGRREGHAQNPMEPSVPQLSLM
Regarding B3, the binding entry in experiment [3] is reported as “no binding”.

B4: A20-3 (258-491aa), truncated region of human A20 overlapping A20-1 and A20-2 (domain or fragment, UniProt P21580 258-491)
chain: VPLVTLKDSGPEIRAVPLVNRDRGRFEDLKVHFLTDPENEMKEKLLKEYLMVIEIPVQGWDHGTTHLINAAKLDEANLPKEINLVDDYFELVQHEYKKWQENSEQGRREGHAQNPMEPSVPQLSLMDVKCETPNCPFFMSVNTQPLCHECSERRQKNQNKLPKLNSKPGPEGLPGMALGASRGEAYEPLAWNPEESTGGPHSAPPTAPSPFLFSETTAMKCRSPGCPFTLNVQH
On to B4, for which the binding result in experiment [3] is listed as “no binding”.
